± gives the standard deviation of the averaged measurements. This is one part of the list.
System: PfAP2-I AP2 domain 3 (GST-tagged)
Assay: gcPBM binding intensity (ln(normalized median fluorescence intensity)); higher = stronger DNA binding
How it was run: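 Each value is the highest Masliner-normalised natural-log median intensity across replicate spots of either orientation of a probe. The probes were primer-extended double-stranded 36-bp intergenic genomic sequences on an Agilent 4 × 180k array, alongside negative controls, exposed for 1 h to GST-tagged P. falciparum DNA-binding domains expressed in E. coli. Bound protein was picked up with Alexa488 anti-GST antibody and scanned at 488 nm.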

Point of comparison: “TGAATTAAGATTTATTGTACATAATTTATACCATAT [XGTACX_site7034]”, “gcPBM binding intensity (ln)” value 7.78 ± 0.42. Against it:
- AAAAAAAAAAAAAAATGTACATATATATAAATATAT [XGTACX_site6768] — within error, 7.97 ± 0.28
- TATTTATATGTATATACATGCACATATATATGAAAC [TGCATGCA_site1005] — within error, 8.35 ± 0.57
- ATATATATATATATATGTACATATTTTTATTTATAC [XGTACX_site2858] — higher, 9.36 ± 0.46
- TATGTAATGTTTACAACACACAAATTATAAATACAA [CACACA_site1771] — within error, 7.6 ± 0.37
- ACCTATATACTAAATGCACACTTATATATTTATATA [CACACA_site5371] — higher, 9.98 ± 0.25
- CTATTTTATATGTGCACACATATACTCAGACAAATA [CACACA_site4761] — higher, 10.2
- AAAGTAAAAAATCATAGTACACATTTAAATATATAT [XGTACX_site2323] — within error, 8 ± 0.59
- GGTATATATTTATAATGTACATATTCATATATATAA [XGTACX_site3291] — within error, 7.76 ± 0.3
- TTTTTTAAATTATGTAGTACGATTCATTTTTTATAA [XGTACX_site1101] — within error, 7.59 ± 0.4
- TAATATATCAAATGAAGTACTCACATATACATAATA [XGTACX_site6051] — within error, 7.74 ± 0.52
- AAGATTTTCCTTGATAGTACACTTATGAAAATTTGT [XGTACX_site3047] — within error, 7.94 ± 0.54
- AATATCTTAGTGGATACACACATATAAATGTGGATT [CACACA_site485] — within error, 7.51 ± 0.64
- TTTTTTTTTTTTTTTTTTTTTTTGTCTTATTTTTTT [GTGCAC_negctrl_site338] — within error, 8.18 ± 0.93
- ATATATTACGACTTCTGTACATAATATATAAAAGAA [XGTACX_site2353] — within error, 7.89 ± 0.4
- TAAATTTATAGACACACACACATATAAATAAATATA [CACACA_site6530] — the same, 7.78 ± 0.46
- ATATAATATATATATTGTACATATATTTATAAGCAT [XGTACX_site3726] — the same, 7.78 ± 0.45
- AATGTGCTCGCTATTACACACTCATTGGGATAAACT [CACACA_site7043] — within error, 7.96 ± 0.57
- TATATATATATATATTGTACATTTACCAAATTGTGT [XGTACX_site5791] — higher, 9.41 ± 0.27
- TTTAATAATAATACTAGTACACATTCTTTATTATTT [XGTACX_site2671] — within error, 8.13 ± 0.28
- TATATAAATAAATATACACACATATATAAATATACA [CACACA_site2982] — within error, 7.42 ± 0.26
- TTTTTTTTTTTTTGCACACTTAAATTTGGAGTGTAG [CACACA_site2345] — higher, 9.375 ± 0.064
- GAAATAAATATAATATATATATATATATATATATGT [TGCATGCA_negctrl_site216] — within error, 8.25 ± 0.38
- AAAAATAAATATATATGTACACATATGTATACAATA [XGTACX_site4692] — within error, 7.65 ± 0.38
- GGTATACACAGACATGCATGTAATTATATATAGGGA [TGCATGCA_site83] — within error, 7.91 ± 0.69
- TTACAACATGAAAATGTGCACATATATATATATATA — higher, 9.785 ± 0.007
- TGAAATTCCATAAAATGTACATATTAGTTTAATTCA [XGTACX_site4031] — within error, 7.48 ± 0.34
- AATATATTTAATCATACACACATTTATGTACCTATA [CACACA_site1718] — within error, 7.87 ± 0.61
- TCGCCCTACAATTTGTTTATATATTAAATAAAATTT [CACACA_negctrl_site883] — within error, 7.92 ± 0.56
- CATCATCTTTTAAAGGTGCATAATAATATTGTTAAT — higher, 11.4 ± 0.69
- GTCTATTATTTTTGAAGTACAAAAATTTTAGTTAAA [XGTACX_site4708] — within error, 7.93 ± 0.38
- ATGTTCTTTAAAACCACACACCCCCCAACCCCCCTC [CACACA_site2373] — higher, 10.6 ± 0.36
- TATAATGTTAAATAATGTACATATTTTTTTTTTTTT [XGTACX_site4721] — within error, 7.7 ± 0.18
- AAAGCTAATATTATATGTACTTATATATTTATATAT [XGTACX_site4474] — within error, 7.53 ± 0.23
- ATATAAATCTACACCGCACACAAAAACAACAAATAT [CACACA_site2506] — within error, 8.44 ± 0.32
- AAATAAATGAAACACACACACACAAAAAAAAAAAAC [CACACA_site2625] — within error, 8.04 ± 0.6
- CATGTGCATATTAAATGTACATATATACATATATAC [XGTACX_site857] — higher, 9.31 ± 0.16
- ATATAGGTATTTAATACACACAAAACTTTCATTCCA [CACACA_site7627] — within error, 7.84 ± 0.45
- AAGGATGATACAACTTGTACATATTTGCTTAATATA [XGTACX_site764] — within error, 7.58 ± 0.63
- ATATAAATATATTGCACACACAATTATTATTATTAT [CACACA_site7147] — higher, 10.1 ± 0.45
- TTTTTTTTTTTCGGGGGTACTAATATATTATTAATA [XGTACX_site7809] — higher, 10.8 ± 0.47
- GTTTTTAAGAAAAACACACACTCCTGTTATTTTATA [CACACA_site3696] — within error, 7.67 ± 0.72
- AACAAAATTGAAGGAACACACATACAGATATATATA [CACACA_site4264] — within error, 7.84 ± 0.62
- TAATAATTAATTAATATAATATTTTTTCATAATTAT [XGTACX_negctrl_site602] — within error, 7.22 ± 0.44
- ATAGAAAAAATATACACACACTTATTAAATAAAAAT [CACACA_site7540] — within error, 7.72 ± 0.65
- TATATATCAATATGCACACACAAGAAGTAATTATAA [CACACA_site7487] — higher, 8.96 ± 0.22
- TAAAAAGTATATAAGAGTACACATATTTATAAATAT [XGTACX_site3084] — within error, 8.03 ± 0.32
- AGACTTTGTACAAACACACACATGAGCACAATATTA [CACACA_site6755] — within error, 8.18 ± 0.6
- ATAAACAAAGTTAAATGTACAAAGGGGTAAAAAAAA [XGTACX_site83] — within error, 8.22 ± 0.59
- AACAAATTTTTTTTTCCTTTTTTTTTTTTACTTCAT [CACACA_negctrl_site1214] — within error, 7.21 ± 0.79
- TTATTAACCAAACGCACATGCAAAATATATTATATA [TGCATGCA_site915] — within error, 8.46 ± 0.28
- AAATAAATAATATGTAAACACACAAAAAATAAAAAT [CACACA_site8307] — within error, 7.73 ± 0.69
- TTTTTTTTTCGGAAAAGTACAAAACTTTTTTATAAT [XGTACX_site4670] — within error, 7.72 ± 0.45
- ACACAATTGAAATAGTGTACAAAATGTTGTTACATA [XGTACX_site8671] — within error, 7.61 ± 0.36
- TTATATATATTTAAATTTTATCTCACATATATATAT [TGCATGCA_negctrl_site275] — higher, 8.83 ± 0.13
- TCCCTAAAAAATGATAAATGGAGACAATTCCGACAA [GTGCAC_negctrl_site209] — within error, 7.45 ± 0.57
- AAAAAAAAAAAAATCACACACAATATGAATTTATAG [CACACA_site601] — within error, 7.54 ± 0.49
- AATACAATTTCTAGCACACAAAATATTATTATAATT [CACACA_site3223] — within error, 8.02 ± 0.5
- AAAAAACAATCTCATACACACTAGGGATTAATTATT [CACACA_site5051] — within error, 7.41 ± 0.71
- TATAGAAGCGTTCACACACACACATACATACCCATA [CACACA_site4915] — within error, 8.02 ± 0.42
- TATAAAAAATAAAAAGTTTAATGAATATTTCTTTTA [TGCATGCA_negctrl_site379] — within error, 6.99 ± 0.46
- TCACATGGAAAAAAGTGTACATAATTATGTATAAAT [XGTACX_site2827] — within error, 8.05 ± 0.52
- ATATATATAACATATACACACGTTCATATATATATA [CACACA_site4416] — higher, 9.35 ± 0.099
- TTACAAGTAAAAGGTACACACATTATATATACAAAT [CACACA_site8290] — within error, 7.97 ± 0.55
- TAATTTTTATTTTATTTTATTTTTTTTTTTTTTATT [CACACA_negctrl_site1671] — within error, 7.14 ± 0.49
- CTAGCAAATACATACACACACACACCGATACATATA [CACACA_site9164] — within error, 8 ± 0.48
- ACAAGACAGATATATACACACATACATACATACATA [CACACA_site7472] — within error, 8.12 ± 0.64
- TTTCTTAAAAAAAAAAAAAAAAGAAGATAAATAAAA [CACACA_negctrl_site289] — within error, 7.37 ± 0.76
- TTTAACTTATTCAATGCACACATTTTAATAAGATAT [CACACA_site1967] — higher, 9.41 ± 0.59
- ATATTTATTTATATTACACACATGTGCAATTAAACT [CACACA_site6928] — higher, 9.67 ± 0.26
- ATATAATAGAAGTGTACACACATATTTATGTCTGTA [CACACA_site3121] — within error, 7.88 ± 0.36
- ATGGATAACAATATGTGTACACATTTATATCTCCAC [XGTACX_site5457] — within error, 8.16 ± 0.2
- ATACATTTTTTTTATACGCACACGTCATACTTTTAA [CACACA_site1638] — higher, 8.7 ± 0.49
- AAGCATGGATATTTTACACACATTTCCACGTAACAA [CACACA_site3141] — within error, 8.32 ± 0.6
- ATACATATATATAGGTGTACATATAATATATATATA [XGTACX_site2228] — higher, 8.95
- AACCATGTTAACAATGCATGCATCACTATATAAACG [TGCATGCA_site421] — within error, 8.1 ± 0.64
- ATATTTTTTGGAAAGTGTACAATATTATATATTAAA [XGTACX_site2163] — within error, 7.82 ± 0.44
- GAAATACCGGAAAGCAAACACACATTTTAAAACCAT [CACACA_site3861] — within error, 7.9 ± 0.67
- ACTTATATTATAAATTGTACAAATATTATATTTGGT [XGTACX_site1424] — within error, 7.76 ± 0.54
- CACTTACATAATTATTGTACAGATATTATCAAATAA [XGTACX_site567] — within error, 7.92 ± 0.23
- TTATTTTGTTTATTATGTACACAAAGACATAATAAT [XGTACX_site5648] — within error, 7.88 ± 0.33
- TTTTTTTTTTTTAAATGTACTTATCAACTTTTATAT [XGTACX_site4641] — within error, 7.95 ± 0.69
- AAAAAAAAAAGACACACACACACACGCATATACATA [CACACA_site7289] — within error, 7.82 ± 0.38
- TACGTAAAAATAATACGTACATATATTTATAGAAAA [XGTACX_site4959] — within error, 8.06 ± 0.13
- ACGGACAATACGGAAACACACAAGTTATTTTATCAT [CACACA_site7310] — within error, 7.59 ± 0.73
- AATAAAATAATCCAAGTGCATATGTAAAAATACATT [GTGCAC_site9576] — higher, 8.76 ± 0.26
- AATATATGTAAATGGACACACACATATATATATATA [CACACA_site9220] — higher, 9.26 ± 0.58
- TTCTGTGTCTAAAAATGTACGGGAATATATAAAAGT [XGTACX_site2090] — within error, 8.5 ± 0.61
- ACATAATATATATATTAACACACATCCTTTTATGTA [CACACA_site8317] — within error, 8.08 ± 0.54

From the supplement of paper PMC11417369
